Test results: the supplement of paper PMC3334620
Over roughly 33,000 sequences, “E-score (-0.5 to 0.5)” has its median near -0.011; the highest 2% begin near 0.28. The list shows a part of the results.

Target: T1, Gcr1 (UniProt P07261)
T1 sequence: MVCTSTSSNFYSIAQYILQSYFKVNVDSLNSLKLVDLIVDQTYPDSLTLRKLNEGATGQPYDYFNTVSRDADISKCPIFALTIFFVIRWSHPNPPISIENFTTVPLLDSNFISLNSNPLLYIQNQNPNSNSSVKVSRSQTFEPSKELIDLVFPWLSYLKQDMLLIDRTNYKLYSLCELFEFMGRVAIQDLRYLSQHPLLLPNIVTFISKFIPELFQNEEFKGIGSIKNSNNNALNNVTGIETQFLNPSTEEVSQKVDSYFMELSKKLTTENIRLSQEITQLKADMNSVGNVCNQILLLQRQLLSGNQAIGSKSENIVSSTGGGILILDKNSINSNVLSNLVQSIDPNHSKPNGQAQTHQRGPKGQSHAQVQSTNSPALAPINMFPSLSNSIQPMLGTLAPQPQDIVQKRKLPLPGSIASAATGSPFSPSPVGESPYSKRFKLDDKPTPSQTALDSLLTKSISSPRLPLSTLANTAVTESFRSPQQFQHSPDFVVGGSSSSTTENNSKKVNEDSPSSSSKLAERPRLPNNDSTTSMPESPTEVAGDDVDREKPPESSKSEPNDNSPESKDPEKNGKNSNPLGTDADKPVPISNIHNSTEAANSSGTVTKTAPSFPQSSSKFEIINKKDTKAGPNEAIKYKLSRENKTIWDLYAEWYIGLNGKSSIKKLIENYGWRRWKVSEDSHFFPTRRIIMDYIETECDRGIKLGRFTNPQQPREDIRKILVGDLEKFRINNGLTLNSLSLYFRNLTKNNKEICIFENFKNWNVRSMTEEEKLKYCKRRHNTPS
Experiment: PBM E-score (8-mer binding enrichment) (E-score (-0.5 to 0.5)); higher = stronger / more preferred TF binding; most listed sequences are background and not binding sites
Conditions: protein concentration: 100 nM; construct: GST-full length
Procedure, shortened: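 Each ungapped eight-base word and its reverse complement, pooled, received an E-score from the Universal PBM Analysis Suite. Underlying scans, normalised with masliner, recorded fluorescent anti-GST bound to GST-tagged yeast transcription factors. These were applied at about 100-200 nM to universal all-10-mer Agilent arrays double-stranded by primer extension.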

Sequence	PBM E-score
CCCTACCA	-0.0731
AGTTTGCC	-0.134
AAAATTGA	0.11
CGAAAGGC	0.0349
GCGGCAGA	-0.0658
GACAGGCC	-0.0716
TACTCTCA	-0.076
CGAAGCGC	0.0302
GTTGAGCA	-0.147
GAAAGGAC	-0.258
GACAGCTC	-0.261
GATTGTGA	-0.112
ATAGTTAA	-0.0481
CGCCGGTC	-0.154
CCGAGCCC	-0.21
ATCCAATA	0.303
AGCTACCG	-0.00576
AGTGTACG	-0.198
ACGCCACT	0.168
CCCAACCC	0.107
CAGAACTA	-0.0418
TAAGCGGA	-0.143
CGTTAGCC	-0.00278
CGCTCAAA	-0.157
CACTGACG	-0.156

Sequence	PBM E-score
GATAATTA	0.239
AGAGGGTA	-0.235
AACTGCTG	-0.124
AAATAGGA	0.335
CGCAGCCG	0.0939
CCGTTCTC	-0.0866
CGCTGCAA	0.0115
AAGGCGCT	0.114
CAGTTTGA	0.0368
GCCGCTCC	0.073
ACACCTGT	-0.0511
CCCCGGAG	-0.283
GTCACAAA	0.0383
AATTCTCT	-0.138
GTACCCTA	-0.015
AACGTCTT	0.158
GCATCAGA	0.0317
ACTGGCCA	-0.0887
GTCTCCGA	0.0752
AAATTAAA	0.122
ACGAAACA	0.0253
AATCTGCC	0.053
GTCTGCCA	-0.11
TATAAACA	0.116
CGCTGACG	-0.159

Sequence	PBM E-score
TATGTGCA	-0.0686
ATTTCTTC	0.121
AGGGGCTG	-0.0372
ACTCATGG	-0.0627
GCCTGTTA	0.128
AGATGAAG	0.0785
GGCAACCA	0.374
ATTTGGCA	-0.152
GAGACTCA	0.0386
CCACCGCC	-0.0958
CAATTGAC	0.00244
CTCGAACA	-0.026
ACCGACCG	-0.251
AGTTCTAC	0.061
CCGTAGCC	-0.0919
ACTTACTG	-0.0613
CCATTGCA	-0.0173
GGCTAGAC	-0.236
CGGCAACG	0.0861
CTGAAGTA	0.0169
ACAACGTG	-0.0445
CAGCTAAG	-0.0581
CTGCCCAG	-0.0891
CCAGTTAG	0.0191
CTGCTTAA	0.191

Sequence	PBM E-score
GCCGCCAC	0.124
AACCGGAG	0.271
CTGCAAAG	-0.205
GGGGAGCA	-0.103
AGCATCCA	0.457
GCAAATCC	-0.145
ATGGTTAG	-0.0215
CTCCACAC	0.0816
CTATCCTA	0.0061
CGGTAATC	0.0116
AAACTCGC	-0.0731
AGCCCCAC	0.176
AAGAGATC	-0.169
CATCTACG	-0.00848
AGGTGCTC	0.0208
ATTTACCA	0.123
ACAGTTGC	0.0975
CCGCTTCC	0.346
CCACTTAA	0.0534
TCCCATAA	0.265
AACACAGT	-0.3
TACCTCGA	-0.0146
CAGTAACG	-0.105
GCAGAGGA	-0.129
ACAGTGGC	0.00948

Sequence	PBM E-score
GGGCTGGA	-0.12
CGTTCAAG	-0.0619
AAAGCCTC	-0.0619
AAGGTCGT	-0.219
AGGGAGTC	-0.0187
GATACCGA	0.0304
GAGAGTAC	-0.285
GGATACCA	0.33
CCCTGCAC	-0.195
GCATTAGA	-0.00697
GCGCCGAC	0.0685
AACTTGAC	0.115
CTACGGAA	0.0562
CGGAGCTA	-0.0648
AGGTGGCA	-0.15
TATGCCAA	-0.104
CCGGTGAA	0.0699
AGTGGAGC	0.32
ATAAATCA	0.0483
CTGCCGTA	-0.173
GCACCATA	0.228
CTTTTGTC	-0.131
TATCACAA	-0.053
CCCTTCAC	-0.11
GGTTCGTA	0.0401

Sequence	PBM E-score
GGTACTCA	0.0227
ATAGCGAT	-0.199
AAGGCTGT	-0.292
AGGGCCTC	0.0587
CGCGGTAA	0.108
GGTCGAAA	-0.265
GACCCTAC	-0.0875
ATGGCATG	-0.315
AGCTAAAA	-0.0393
TAGAGCAA	0.0155
ATTCGAAG	-0.0287
TCTTTACA	0.203
CATTTTAG	0.235
CGCTCCAC	0.106
ACAGCCTC	-0.114
TATGCCGA	-0.231
AATGGTGT	0.0428
CCTGTCCC	-0.0306
ATATTTCC	0.0509
CAGCTCAG	-0.00015
GTCGGCGA	-0.0895
TGATCGAA	-0.0926
AGGGACTC	-0.128
AGGGCGGA	-0.261
ACCAAGTG	-0.0673

Sequence	PBM E-score
TAACGATA	0.0921
ATGTCGTA	0.0794
AGAACCTG	0.087
GATTAAAC	-0.0725
CGTGTCCA	0.119
AAGTTCGA	0.0312
CATACAGA	-0.00116
ATGGAGGC	-0.129
CTACGTAA	0.0212
ATGCCTGC	0.0636
AAATACCC	0.107
TATGGCAA	0.0568
CTGGAGCA	0.0508
GACGGCTC	-0.205
CCTATCTC	-0.0566
CTTCTGCC	0.133
GTTTGGCA	0.164
AAGGTTTG	0.0286
AGCGACAA	0.0788
GCCGTCAA	0.0109
CCTGATCC	0.0357
CGAGCTTA	-0.185
